Measurements taken from PubChem BioAssay AID686979 (National Center for Advancing Translational Sciences (NCATS), 2013).
Out of some 420,000 compounds screened, about 50,000 (12%) were called active. The inconclusive results got no clear call from the source; some entries with a clear call stand among them for comparison. Calls follow the shape of the dose curve; as a rule, active = well fitted inhibition curve with a large enough effect; inconclusive = small, poorly fitted or top-dose-only effect; inactive = flat fitted curve, though single readings scatter. Potencies of inconclusive entries are left out as doubtful fits.

Assay: qHTS for Inhibitors of human tyrosyl-DNA phosphodiesterase 1 (TDP1): qHTS in cells in presence of CPT; also: nearly all actives have a fitted effect of over 55% in size
Conditions: chicken DT40 Tdp1-/-;hTDP1 cells + 20 nM CPT, ATP luminescence, 48 h; series mostly up to 46.2 µM
In short: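 Chicken DT40 Tdp1-/- cells stably complemented with human TDP1 were seeded at 400 cells/well in medium containing 20 nM camptothecin, exposed to pin-transferred compounds, and grown at 37 °C for at least 48 hr. Viability was read as ATP luminescence.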
Potency is read from the fitted curve at half-maximal effect; tags tell the direction and shape of the fitted curve.

SMILES	Potency
COc1ccc(C)cc1C(=O)CCC(=O)NCCc1ccc(S(N)(=O)=O)cc1	inactive
CCNc1nc(NCC)n2c(SCC(=O)Nc3cccc(Cl)c3)nnc2n1	inconclusive [inhibitor, single point]
COc1ccc(CSc2nc(C)cc(C)c2S(C)(=O)=O)cc1	inconclusive [inhibitor, partial curve]
O=C(COCc1cc(-c2ccc(F)cc2)on1)Nc1cc(Cl)ccc1O	inconclusive [inhibitor, single point]
NC(=O)N=Nc1c2[nH]c3ccccc3nc-2c2ccccc12	active: 16.4 µM
COc1ccc2sc(-c3ccccc3OC)c(-c3ccc(SC)cc3)c2c1	inactive
O=C(N/N=C/C(Br)=C/c1ccccc1)c1ccccc1[N+](=O)[O-]	active: 13 µM
CC(=O)C1=C(c2ccc(Cl)c(Cl)c2)N(C(C)=O)n2c(nnc2-c2ccccc2)S1	inconclusive [inhibitor, partial curve, poor fit]
CCN(C(=O)COc1ccc(C(=O)c2ccccc2)cc1)c1ccccc1	active: 18.4 µM
Cc1cc(C(=O)COC(=O)c2ccc3c(c2)NC(=O)CS3)c(C)n1CC1CCCO1 (stereo not drawn)	inconclusive [inhibitor, single point]
CCN1CCN(C(c2cccs2)C(C)NC(=S)Nc2cc(C)ccc2C)CC1 (stereo not drawn)	inconclusive [inhibitor, single point]
Cc1ncsc1CCSc1nc2ccccc2c(=O)n1C	inconclusive [inhibitor, single point]
CCOC(=O)c1sc(NC(=O)Cn2nnc3sc4c(c3c2=O)CCCC4)nc1C	inactive
CCCCCCc1c(O)nc(SCCN(C)C)[nH]c1=O	inactive
Cc1cccc(NC(=O)c2c(O)c3ccccc3n(C)c2=O)c1	inconclusive [inhibitor, single point]
COc1ccc(N2CCN(CCNC(=O)CCC(=O)NNc3nc4ccccc4c4nc(C)nn34)CC2)cc1	inconclusive [inhibitor, single point]
COc1ccc(Cc2c(-c3cccc(Cl)c3)nc3ccc(C)cn23)c(C)c1	active: 16.4 µM
Cc1ccccc1CC(=O)Nc1ccc(S(=O)(=O)N2CCN(C)CC2)cc1	inactive
COc1cccc2cc(-c3nc(Nc4cccc(C)c4C)sc3C)c(=O)oc12	inconclusive [inhibitor, single point]
COc1ccc(S(=O)(=O)NCC(=O)O)cc1C(=O)NC1CCCCC1	inactive
CN(C)c1ccnc2c[cH-]cc12.[Fe].c1ccc(-[c-]2[c-](-c3ccccc3)[c-](-c3ccccc3)[c-](-c3ccccc3)[c-]2-c2ccccc2)cc1 (stereo not drawn)	active: 5.17 µM
CN(C(=O)CSc1nc(N)cc(N)n1)C1CCS(=O)(=O)C1 (stereo not drawn)	inactive
CN(C(=S)NC(=O)C1CC1)c1ccc(O)cc1	inconclusive [inhibitor, single point]
COc1cc(C(CC(=O)Nc2cccc(C(C)=O)c2)N2Cc3ccccc3C2=O)cc(OC)c1OC (stereo not drawn)	inconclusive [inhibitor, partial curve, poor fit]

SMILES	Potency
Cc1ccc[n+](C(C)C(=O)Nc2ccc([N+](=O)[O-])cc2C)c1 (stereo not drawn)	inactive
COc1cccc(C2C=C(c3ccccc3)Nc3c(C(=O)Nc4ccccc4)cnn32)c1OC (stereo not drawn)	active: 16.4 µM
CC(=O)N1CCCc2cc(S(=O)(=O)NC(C(=O)NC(C)c3ccccc3)C(C)C)ccc21 (stereo not drawn)	inconclusive [inhibitor, single point]
O=C(CSc1n[nH]c(=O)[nH]c1=O)Nc1cccc(S(=O)(=O)N2CCOCC2)c1	inactive
C[n+]1ccc(C(=O)N/N=C/c2ccco2)cc1	inactive
CN1CCN(c2ccccc2NC(=O)COc2ccc(C3CCCCC3)cc2)CC1	inconclusive [inhibitor, single point]
CC(=O)Nc1ccc(S(=O)(=O)N(C)CC(=O)Nc2ccc(F)c(F)c2F)cc1	inconclusive [inhibitor, partial curve]
Cc1cc(N2CCCCC2)nc(NCc2ccccc2)n1	active: 10.3 µM
COc1ccc(-c2nc3ccccc3c(=O)n2NC(=O)c2cccnc2Cl)cc1OC	inactive
CC(C)(C)N(NC(=O)Nc1ccc(Cl)cc1)C(=O)c1ccccc1	inconclusive [inhibitor, partial curve]
COCCNC(=O)c1cccc(OC2CCN(Cc3cccc(SC)c3)CC2)c1	inconclusive [inhibitor, single point]
CCOc1ccc(C(C(=O)NC2CCCC2)N(C(=O)c2snc(C(N)=O)c2N)C2CCCC2)cc1 (stereo not drawn)	inconclusive [inhibitor, single point]
Nn1c(SCc2ccc(Br)cc2)nnc1-c1cccnc1	inactive
CCSc1ncc(Cl)c(C(=O)Nc2sc3c(c2C(=O)NCCOC)CCCC3)n1	inactive
COC(=O)c1cc2c(s1)-c1ccc(OC)cc1CC2	inactive
C[C@H](CO)N1C[C@H](C)[C@@H](CN(C)S(C)(=O)=O)Oc2c(NC(=O)Nc3ccc(C(F)(F)F)cc3)cccc2C1=O	active: 23.1 µM
Cc1c(O)c(CN2CCCCC2)cc2c1oc(=O)c1ccccc12	inconclusive [inhibitor, single point]
CN(C)CCN(Cc1ccccc1)C(=O)C1CCN(c2ncnc3c2nc2n3CCCCC2)CC1	inactive
O=C(NNC(=O)c1cccc2ccccc12)c1cccc(Br)c1	inconclusive [inhibitor, single point]
Cc1cc(Br)ccc1NC(=O)CCCOc1cc(=O)n(C)c2ccccc12	inconclusive [inhibitor, single point]
Cc1cc(C)c(NC(=O)Cn2ncc3ccccc32)c(C)c1	inactive
C=CCNC(=S)Nc1ccccc1-c1nnc2n1CCCCC2	inactive
COC(=O)[C@H](CCSC)NC(=O)Cn1cnc(C(=O)Nc2ccc(C)c(C)c2)n1	inactive
CC(=O)Nc1ccc(CN2CCN(c3cccc(C(F)(F)F)c3)CC2)cc1	inconclusive [inhibitor, single point]
